Results as given in ChEMBL document CHEMBL1201862, “PubChem BioAssay data set” (2004).
Counter-ions that a name gives are not always drawn.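 Exposure lasted 48 hours, with cells grown in 96-well plates and compounds tested at five concentrations. Abbreviation: GI50, concentration required for 50% inhibition of growth.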 Activity calls are given as the source filed them. Rule as the data show it: active = GI50 up to about 1.1 µM and inactive = higher. Numbered stars: 1 amine (or outer) side, 2 acyl side, 3 side chain; on linkers, the order of the positions; unused ones are H or OH. Square brackets hold non-standard residues; d marks the D form. Peptide text beside a SMILES is read from it. X3 = CC[C@H](C)[C@H](OC(=O)[C@@H](C)[C@@H](CC)N[*:1])C(=O)[*:2]; X4 = C[C@H](N[*:1])C(=O)C(C)(C)C(=O)[*:2]; NMeY = CN[C@@H](Cc1ccc(O)cc1)C(=O)O; NMeL = CN[C@@H](CC(C)C)C(=O)O; NMeV = CN[C@H](C(=O)O)C(C)C

system: NCI-H322M; experiment: inhibition of tumour cell growth, NCI panel, 48 h

| Structure (SMILES) | GI50 |
| --- | --- |
| c1c2c(cc3c1OCO3)-c1cc3ccc4c(c3c[n+]1CC2)OCO4 [COPTISINE CHLORIDE] | inactive: 1.5 µM |
| C[C@]12CCC(=O)C=C1CC[C@@H]1[C@@H]2C(=O)C[C@@]2(C)[C@H]1CC[C@]2(O)C(=O)CO [CORTISONE] | inactive: > 100 µM |
| O=c1oc2cc(O)ccc2c2oc3cc(O)ccc3c12 [COUMESTROL] | inactive: 28.4 µM |
| CC[C@H]1C=CCC[C@@]2(C[C@@H]3CC[C@@H]4[C@H](C(=O)OCCCCCCCCCCCCCCCC(=O)O)[C@]5(CCC[C@@H](C)O5)NC(=[N+]34)N2)O1 [CRAMBESCIDIN 657] | active: 0.879 µM |
| CC(=O)OC(C)(C)/C=C/C(=O)[C@](C)(O)[C@H]1[C@H](O)C[C@@]2(C)[C@@H]3CC=C4[C@@H](C[C@H](O)C(=O)C4(C)C)[C@]3(CO)C(=O)C[C@]12C [CUCURBITACIN A] | active: 0.925 µM |
| CC(=O)OC(C)(C)/C=C/C(=O)[C@](C)(O)[C@H]1[C@H](O)C[C@@]2(C)[C@@H]3CC=C4[C@@H](C=C(O)C(=O)C4(C)C)[C@]3(C)C(=O)C[C@]12C [CUCURBITACIN E] | active: 0.794 µM |
| COc1cc(/C=C/C(=O)CC(=O)/C=C/c2ccc(O)c(OC)c2)ccc1O [CURCUMIN] | inactive: 16.7 µM |
| CC1(C)S[C@@H]2[C@H](NC(=O)C3(N)CCCCC3)C(=O)N2[C@H]1C(=O)O [CYCLACILLIN] | inactive: > 100 µM |
| CC(C)=CCC[C@@H](C)[C@H]1CC[C@@]2(C)[C@@H]3CC[C@H]4C(C)(C)[C@@H](O)CC[C@@]45C[C@@]35CC[C@]12C [CYCLOARTENOL] | inactive: 48.2 µM |
| CN(C)CCC=C1c2ccccc2C=Cc2ccccc21 [CYCLOBENZAPRINE HYDROCHLORIDE] | inactive: 9.95 µM |
| NC1=NCCN1CC(=O)O [CYCLOCREATINE] | inactive: > 1000 µM |
| NC1(C(=O)O)CCCC1 [CYCLOLEUCINE] | inactive: > 248 µM |
| O=P1(N(CCCl)CCCl)NCCCO1 (stereo not given) [CYCLOPHOSPHAMIDE ANHYDROUS] | inactive: > 250 µM |
| C/C=C/C[C@@H](C)[C@@H](O)[C@H]1C(=O)N[C@@H](CC)C(=O)N(C)CC(=O)N(C)[C@@H](CC(C)C)C(=O)N[C@@H](C(C)C)C(=O)N(C)[C@@H](CC(C)C)C(=O)N[C@@H](C)C(=O)N[C@H](C)C(=O)N(C)[C@@H](CC(C)C)C(=O)N(C)[C@@H](CC(C)C)C(=O)N(C)[C@@H](C(C)C)C(=O)N1C [CYCLOSPORINE] | inactive: 3.73 µM |
| COc1cc(/C=C2\CCC/C(=C\c3ccc(O)c(OC)c3)C2=O)ccc1O [CYCLOVALONE] | inactive: 6.1 µM |
| NCCSSCCN [CYSTAMINE HYDROCHLORIDE] | inactive: > 100 µM |
| NCCS [CYSTEAMINE HYDROCHLORIDE] | inactive: > 100 µM |
| CSC(=S)N(C)C [CYSTOGON] | inactive: > 100 µM |
| C[C@H]1C/C=C/[C@H]2[C@@H]3O[C@]3(C)[C@@H](C)[C@H]3[C@H](Cc4ccccc4)NC(=O)[C@]32OC(=O)O/C=C/[C@@](C)(O)C1=O [CYTOCHALASIN E] | active: 0.56 µM |
| Nc1ncn([C@H]2C[C@H](O)[C@@H](CO)O2)c(=O)n1 [DECITABINE] | inactive: 52.1 µM |
| CC1=C2C(=O)C(C)(C)C=C2C(=O)[C@](C)(O)C12CC2 [DEHYDROILLUDIN M] | active: > 1 µM |
| Cc1cc(N)c2ccccc2[n+]1CCCCCCCCCC[n+]1c(C)cc(N)c2ccccc21 [DEQUALINIUM CHLORIDE] | inactive: 3.07 µM |
| C[C@@H](CN1CC(=O)NC(=O)C1)N1CC(=O)NC(=O)C1 [DEXRAZOXANE] | inactive: 441 µM |
| Nc1cc2[nH]cnc2c(=O)[nH]1 [DEZAGUANINE] | inactive: 169 µM |

| Structure (SMILES) | GI50 |
| --- | --- |
| C/C(=C\[C@H]1C[C@@H]([C@@H]2CC[C@]34C[C@]23C=C[C@@H]2[C@@]3(C)CC=C5C[C@@H](c6ccccc6)OC[C@]5(C)[C@@H]3C[C@@H](O)[C@]24C)C(=O)O1)CO [DICHAPETALIN A] | inactive: 8.28 µM |
| C[C@@H]1CC[C@@]2(OC1)O[C@H]1[C@@H](O)[C@H]3[C@@H]4CC[C@H]5C[C@@H](O[C@@H]6O[C@H](CO)[C@H](O[C@@H]7O[C@H](CO)C(O)[C@H](O[C@@H]8OC[C@@H](O)[C@H](O)[C@H]8O)[C@H]7O[C@@H]7O[C@H](CO)[C@H](O)[C@H](O[C@@H]8O[C@H](CO)[C@@H](O)[C@H](O)[C@H]8O)[C@H]7O)[C@H](O)[C@H]6O)[C@H](O)C[C@]5(C)[C@H]4CC[C@]3(C)[C@H]1[C@@H]2C (stereo not given in full) [DIGITONIN] | inactive: 3.3 µM |
| COc1cc(CC(C)C(C)Cc2ccc(O)c(OC)c2)ccc1O (stereo not given) [DIHYDROGUAIARETIC ACID] | inactive: 21.2 µM |
| Oc1ccc(CCc2cc(O)cc(O)c2)cc1 [DIHYDRORESVERATROL] | inactive: > 100 µM |
| O=C(NP(=O)(N1CC1)N1CC1)c1cc(I)ccc1I [DIIODBENZOTEPH] | inactive: > 87.9 µM |
| COc1ccc2c(=O)c(C)c(-c3ccccc3)oc2c1CN(C)C [DIMEFLINE] | inactive: > 100 µM |
| COc1cc(OC)c2c(c1)OC(c1ccccc1)CC2=O (stereo not given) [DIMETHYLPINOCEMBRIN] | inactive: > 10 µM |
| C/C(=C(/C)c1ccc(O)cc1)c1ccc(O)cc1 [DIMETHYLSTILBESTROL] | inactive: 87.3 µM |
| Nc1ccc(C(=O)Nc2ccccc2N)cc1 [DINALINE] | inactive: 46.2 µM |
| CC(C)(C)c1cc([N+](=O)[O-])cc([N+](=O)[O-])c1O [DINOTERB] | inactive: > 10 µM |
| CN(C)CCOC(c1ccccc1)c1ccccc1 [DIPHENHYDRAMINE HYDROCHLORIDE] | inactive: > 100 µM |
| OCCN(CCO)c1nc(N2CCCCC2)c2nc(N(CCO)CCO)nc(N3CCCCC3)c2n1 [DIPYRIDAMOLE] | inactive: 40.1 µM |
| CC(C)(S)C(N)C(=O)O (stereo not drawn) [DL-PENICILLAMINE] | inactive: > 100 µM |
| CC[C@H](C)[C@@H]1OC(=O)[C@@H](C)[C@@H](CC)NC(=O)[C@H](C)NC(=O)C(C)(C)C(=O)[C@H](C)NC(=O)[C@H](Cc2ccc(OC)cc2)N(C)C(=O)[C@H](C(C)C)N(C)C(=O)CNC(=O)[C@H](CC(C)C)N(C)C(=O)CNC1=O [DOLASTATIN 11] (cyclo(A[X3]G[NMeL]G[NMeV][NMeY](Me)[X4])) | active: 0.459 µM |
| CC1(C)CCc2c(ccc(C(=O)/C=C/c3ccc(O)cc3)c2O)O1 [DORSMANNIN A] | inactive: 9.55 µM |
| O=C1c2ccccc2S(=O)(=O)c2cc(-c3nn[nH]n3)ccc21 [DOXANTRAZOLE] | inactive: > 100 µM |
| CCCCCCCCCCCCCCCCCCOCC(COP(=O)([O-])OCC[N+](C)(C)C)OC (stereo not given) [EDELFOSINE] | inactive: 46.8 µM |
| NCCCC(N)(C(=O)O)C(F)F (stereo not given) [EFLORNITHINE] | inactive: > 5000 µM |
| Cc1c2cc[n+](C)cc2c(C)c2c1[nH]c1ccc(O)cc12 [ELLIPTINIUM ACETATE] | inactive: 6.34 µM |
| CCCCCCCCCCCC1=C(O)C(=O)C=C(O)C1=O [EMBELIN] | inactive: 7.41 µM |
| Cc1cc(O)c2c(c1)C(=O)c1cc(O)cc(O)c1C2=O [EMODIN] | inactive: 25.3 µM |
| CCn1cc(C(=O)O)c(=O)c2cc(F)c(N3CCNCC3)nc21 [ENOXACIN] | inactive: > 100 µM |
| Nc1ccccc1NC(=O)c1ccc(CNC(=O)OCc2cccnc2)cc1 [ENTINOSTAT] | inactive: 1.47 µM |
| Oc1cc(O)c2c(c1)O[C@H](c1cc(O)c(O)c(O)c1)[C@H](O)C2 [EPIGALLOCATECHIN] | inactive: 45 µM |

| Structure (SMILES) | GI50 |
| --- | --- |
| O=CN/C=C/c1cc(O)ccc1O [ERBSTATIN] | inactive: > 100 µM |
| CCCCCCCC/C=C\CCCCCCCCCCCC(=O)O [ERUCIC ACID] | inactive: 49.5 µM |
| O=C1OC2(c3ccccc31)c1cc(I)c(O)c(I)c1Oc1c2cc(I)c(O)c1I [ERYTHROSINE] | inactive: 6.08 µM |
| C[C@]12CC[C@@H]3c4ccc(O)cc4CC[C@H]3[C@@H]1CC[C@@H]2OC(=O)CCC1CCCC1 [ESTRADIOL CYPIONATE] | inactive: 17.8 µM |
| O=C(Cn1ccnc1[N+](=O)[O-])NCCO [ETANIDAZOLE] | inactive: > 100 µM |
| CCOC(=O)Nc1ccc2c(c1)N(C(=O)CCN(CC)CC)c1ccccc1S2 [ETHACIZINE] | inactive: 36.6 µM |
| CCOc1cc(C=O)ccc1O [ETHYL VANILLIN] | inactive: > 100 µM |
| CCc1nc(N)nc(N)c1-c1ccc(Cl)c(Cl)c1 [ETOPRINE] | inactive: 6.15 µM |
| CCc1ccc2c(c1)N(CC(C)CN(C)C)c1ccccc1S2 (stereo not given) [ETYMEMAZINE HYDROCHLORIDE] | inactive: 4.84 µM |
| C=C1C(=O)O[C@H]2[C@H]1[C@H](OC(=O)/C(C)=C\C)CC(=C)[C@@H]1[C@H](O)[C@H]3O[C@@]3(C)[C@@]12O [EUPATUNDIN] | inactive: > 100 µM |
| COc1c2ccoc2nc2c(OC)c(OCC(O)C(C)(C)O)ccc12 (stereo not given) [EVOXINE] | inactive: > 100 µM |
| O=C1c2ccccc2-[n+]2ccc3c([nH]c4ccccc43)c21 [FASCAPLYSIN CHLORIDE] | active: 0.612 µM |
| CC1=C(/C=C/C(C)=C/C=C/C(C)=C/C(=O)Nc2ccc(O)cc2)C(C)(C)CCC1 [FENRETINIDE] | inactive: 6.7 µM |
| Oc1ccc(Cl)cc1Sc1cc(Cl)ccc1O [FENTICLOR] | inactive: 22.4 µM |
| O=c1c(O)c(-c2ccc(O)c(O)c2)oc2cc(O)ccc12 [FISETIN] | inactive: 18.2 µM |
| O=C1CC(c2ccccc2)Oc2ccccc21 (stereo not given) [FLAVANONE] | inactive: 93.3 µM |
| Nc1nc(=O)[nH]cc1F [FLUCYTOSINE] | inactive: > 100 µM |
| CC(=O)[C@@]1(O)CC[C@H]2[C@@H]3C[C@H](C)C4=CC(=O)C=C[C@]4(C)[C@@]3(F)[C@@H](O)C[C@@]21C [FLUOROMETHOLONE] | inactive: > 100 µM |
| O=C(Nc1cccc(C(F)(F)F)c1)c1cc(Br)cc(Br)c1O [FLUOROSALAN] | inactive: 3.6 µM |
| O=c1[nH]cc(F)c(=O)[nH]1 [FLUOROURACIL] | inactive: 22.5 µM |
| CC(C(=O)O)c1ccc(-c2ccccc2)c(F)c1 (stereo not given) [FLURBIPROFEN] | inactive: > 100 µM |
| C[C@]12CCC(=O)C(O)=C1CC[C@@H]1[C@@H]2CC[C@]2(C)C(=O)CC[C@@H]12 [FORMESTANE] | inactive: > 100 µM |
